PubChem BioAssay AID1030 (National Center for Advancing Translational Sciences (NCATS), 2008)
Hit rate of the full screen: of about 220,000 compounds, about 16,000 (7.3%) were called active. The shares of active, inactive and inconclusive entries below differ from those in the screen. Calls follow the shape of the dose curve; as a rule, active = well fitted inhibition curve with a large enough effect (not every such curve was filed as active); inconclusive = small, poorly fitted or top-dose-only effect, or another doubt; inactive = no such curve, though single readings can be large or run the other way. Potencies of inconclusive entries are left out as doubtful fits.

Molecular target: Aldehyde dehydrogenase 1A1 (Homo sapiens) (UniProt P00352)
Chain of UniProt P00352 (P00352 whole entry, looked up): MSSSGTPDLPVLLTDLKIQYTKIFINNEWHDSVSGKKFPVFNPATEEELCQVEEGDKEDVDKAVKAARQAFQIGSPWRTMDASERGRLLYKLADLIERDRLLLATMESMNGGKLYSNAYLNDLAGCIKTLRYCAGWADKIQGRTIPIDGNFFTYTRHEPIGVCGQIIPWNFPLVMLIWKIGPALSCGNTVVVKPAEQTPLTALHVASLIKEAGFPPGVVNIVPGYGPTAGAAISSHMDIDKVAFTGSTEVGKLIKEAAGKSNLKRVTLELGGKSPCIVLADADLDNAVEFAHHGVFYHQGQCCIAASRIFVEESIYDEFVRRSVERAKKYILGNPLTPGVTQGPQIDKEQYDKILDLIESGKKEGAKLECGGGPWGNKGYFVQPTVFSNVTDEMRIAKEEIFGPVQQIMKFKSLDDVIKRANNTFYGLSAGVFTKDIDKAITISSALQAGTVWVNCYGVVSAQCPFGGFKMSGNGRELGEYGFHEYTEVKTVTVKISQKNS
Experiment: qHTS Assay for Inhibitors of Aldehyde Dehydrogenase 1 (ALDH1A1);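 as to activity, negative = inhibition: plate controls were no enzyme wells and a reference inhibitor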
Conditions: Purified ALDH1A1, NADH fluorescence, propionaldehyde substrate; series mostly up to 75.3 µM; activity, negative = inhibition: at the top concentration
Potency is read from the fitted curve at half-maximal effect; tags tell the direction and shape of the fitted curve.

Row | SMILES | activity, negative = inhibition | Potency
1 | CC1CCN(C(=O)CSc2ccc(-c3ccc(F)cc3)nn2)CC1 | inactive: -1.7% | 
2 | Cc1ccc(NC(=O)Nc2ccno2)cc1 | inactive: 13.8% | 
3 | Nc1c(C(=O)NC2CCCC2)c2nc3ccccc3nc2n1/N=C/c1ccco1 |  | inconclusive [inhibitor, single point]
4 | CC(C)C(=O)NC(=S)Nc1ccc(S(=O)(=O)N(C)Cc2ccccc2)cc1 |  | inconclusive [inhibitor, single point]
5 | O=c1[nH]c(-c2ccccc2)nc2sc(-c3ccccc3)cc12 |  | inconclusive [inhibitor, partial curve]
6 | CN(CC(=O)Nc1ccc(F)c(F)c1F)C1CCCCC1 | inactive: 3.3% | 
7 | Cc1ccc(NC(=O)CCNCc2ccco2)cc1S(=O)(=O)N(C)C |  | active: 15.8 µM
8 | CCOc1ccc(CN(C)CC(=O)Nc2cccc3ccccc23)cc1OC |  | inconclusive [inhibitor, single point]
9 | O=Cc1ccnc(-c2ccc(OC(=O)c3ccco3)cc2)n1 |  | inconclusive [inhibitor, single point]
10 | S=C(Nc1ccc(OCc2ccccc2)cc1)Nc1cccc(Cl)c1Cl |  | inconclusive [inhibitor, single point]
11 | COC(=O)/C=C/c1cccc([C@H]2[C@@H]3C=CC[C@@H](C)[C@@H]3C(=O)N2Cc2ccccc2)c1 |  | inconclusive [inhibitor, single point]
12 | O=C(Nc1ccc(F)cc1)c1nn(-c2ccccc2)c(=O)cc1Cl |  | inconclusive [inhibitor, single point]
13 | Cn1c(=O)n(Cc2ccccc2)c(=O)c2c1nc1n2CCCN1Cc1ccccc1 |  | inconclusive [inhibitor, single point]
14 | CC(CS(=O)(=O)c1ccccc1[N+](=O)[O-])N1CCOCC1 (stereo not given) |  | inconclusive [inhibitor, single point]
15 | CS(=O)(=O)N(CC(=O)N/N=C/c1cccc2c1OCCO2)c1ccccc1Br |  | inconclusive [inhibitor, single point]
16 | Cc1ccc(N(Cc2cc3ccccc3[nH]c2=O)S(C)(=O)=O)cc1 |  | inconclusive [inhibitor, single point]
17 | CCOc1ccc(Br)cc1S(=O)(=O)NCc1ccc(S(N)(=O)=O)cc1 | inactive: 18.3% | 
18 | COc1ccc(Cl)cc1NS(=O)(=O)c1cc(Cl)ccc1OC | inactive: 3.06% | 
19 | C(=N\c1nccs1)/c1cccnc1 | inactive: -0.144% | 
20 | COc1ccc(-c2cn(-c3ccc(OC)cc3)c3[n+]2-c2ccccc2CC3)cc1 |  | inconclusive [inhibitor, single point]
21 | COc1ccc(Cc2nnc(SCC(=O)c3cccc([N+](=O)[O-])c3)n2C)cc1 |  | inconclusive [inhibitor, partial curve]
22 | O=S(=O)([O-])CCC[n+]1c(SCCCS(=O)(=O)O)sc2ccc(Cl)cc21 | inactive: 4.74% | 
23 | COC(=O)C1CCN(C(=O)c2cc3c(=O)n4cccc(C)c4nc3n2Cc2ccccc2)CC1 |  | inconclusive [inhibitor, partial curve]
24 | O=C(OCC(=O)N1CCN(C(=O)c2ccco2)CC1)c1ccccc1 |  | inconclusive [inhibitor, single point]
25 | O=C(NCc1ccc(F)cc1)c1cc2ccccn2n1 |  | inconclusive [inhibitor, single point]

Row | SMILES | activity, negative = inhibition | Potency
26 | COc1ccc([N+](=O)[O-])cc1NC(=O)CCN1CCN(CCO)CC1 |  | inconclusive [inhibitor, single point]
27 | CC(C)(C)c1nnc(SCC(=O)c2ccccc2)n(N)c1=O | inactive: 9.02% | 
28 | O=C1CC(c2ccc(Cl)cc2)CC(O)=C1C=NCc1ccc(Cl)c(Cl)c1 (stereo not given) |  | inconclusive [inhibitor, partial curve]
29 | CCOC(=O)c1sc(=S)n(-c2ccccc2Cl)c1C |  | inconclusive [inhibitor, single point]
30 | c1ccc2c(c1)nc1n2C2(N3CCOCC3)CCCC2C1N1CCOCC1 (stereo not given) |  | inconclusive [inhibitor, partial curve]
31 | CC(CCc1ccccc1)NC(=O)/C=C/c1ccccc1 (stereo not given) |  | active: 11.2 µM
32 | CC(C)c1ccc(-n2nc3ccc(N)cc3n2)cc1 |  | inconclusive [inhibitor, partial curve]
33 | COC(=O)c1ccc(Cn2nc(C)cc2C)cc1 | inactive: 4.94% | 
34 | Cc1ccc(CN2C(=O)CCC2C(=O)NCC2CCCO2)cc1 (stereo not given) | inactive: 6.13% | 
35 | CC(=O)N1CCC2(CC1)CCN(c1cccc(-c3ccccc3)c1)CC2 | inactive: -10.7% | 
36 | CN(C)S(=O)(=O)c1cccc(-c2nnc(-c3ccccc3)o2)c1 |  | inconclusive [inhibitor, partial curve]
37 | Cc1cccc(NC(=S)N/C(=N/S(=O)(=O)c2ccccc2)c2ccccc2)c1 |  | active: 22.4 µM
38 | CSCCC(NC(=O)c1ccccc1)C(=O)N/N=C(\C)c1ccccc1 (stereo not given) | inactive: 20.8% | 
39 | COCCOc1cnn(-c2cc(Oc3ccc(C)cc3)ncn2)c(=O)c1Cl |  | inconclusive [inhibitor, partial curve]
40 | COC(CNC(=S)Nc1ccc([N+](=O)[O-])cc1)OC |  | inconclusive [inhibitor, single point]
41 | CCNC(=S)Nc1cccc([N+](=O)[O-])c1 |  | inconclusive [inhibitor, single point]
42 | CC1(C)O[C@H]2O[C@@H]([C@H](O)CON3C(=O)c4ccccc4C3=O)[C@H](O)[C@H]2O1 | inactive: 23.6% [at 13.5 µM] | 
43 | Cc1ccc(/C=C/C(=O)OC(C)C(=O)Nc2ccc(Cl)cn2)o1 (stereo not given) |  | inconclusive [inhibitor, single point]
44 | CC1Cc2ccccc2N1C(=O)CSc1nc2cc3c(cc2cc1C#N)OCO3 (stereo not given) |  | inconclusive [inhibitor, single point]
45 | CCCc1c(C)c2cccc(C)c2[nH]c1=O | inactive: -1.65% | 
46 | COc1ccc(C[C@H]2CN3C(=NC[C@H]3C)N2CCNC(=O)c2ccc(C)c(Br)c2)cc1 |  | inconclusive [inhibitor, full curve]
47 | CO/N=C/c1c(C(=O)OC)nn(-c2ccccc2)c1Cl | inactive: 10.2% | 
48 | C=CCNc1ccc(C(=O)O)cc1 | inactive: 1.72% | 
49 | Cc1cc([N+](=O)[O-])ccc1NC(=O)c1ccco1 |  | active: 15.8 µM
50 | NC(=O)C(=O)O | inactive: -2.67% | 

Row | SMILES | activity, negative = inhibition | Potency
51 | CCOc1ccc(-n2c(SCC(=O)NCc3ccco3)nc3c(c2=O)SCC3)cc1 |  | active: 14.1 µM
52 | NC(=O)Cn1c(=O)n(Cc2ccco2)c(=O)c2c3c(sc21)CCCCC3 |  | active: 11.2 µM
53 | COc1ccc(/C=N/Nc2nc3ccccc3c(=O)n2-c2ccccc2)cc1OC |  | inconclusive [inhibitor, single point]
54 | O=C(CN1C(=O)C2CCCCC2C1=O)Nc1nc(-c2ccccn2)cs1 (stereo not given) |  | active: 22.4 µM
55 | CC(=O)N1CCCC(C(=O)c2ccc3c4c(cccc24)CC3)C1 (stereo not given) |  | inconclusive [inhibitor, partial curve]
56 | O=C(NC(=S)Nc1nc2c(s1)CCCC2)c1ccccc1 |  | inconclusive [inhibitor, single point]
57 | O=c1c(-c2ccc(F)cc2)nc2cnc(Oc3cccc(Cl)c3)nc2n1C[C@H]1CCCO1 |  | inconclusive [inhibitor, partial curve]
58 | O=c1nc2scc(-c3ccccc3)n2c2ccccc12 | inactive: 0.389% | 
59 | CCCN(CCC)c1cc(Cl)nc(N)n1 | inactive: -2.25% | 
60 | O=C(NCc1ccco1)c1c(O)c2cccc3c2n(c1=O)CCC3 |  | inconclusive [inhibitor, single point]
61 | Cc1ccc(N=Cc2cc3c(cc2O)OC(N)=C(C#N)C3c2ccccc2)cc1 (stereo not given) | inactive: -5.89% | 
62 | CCC(=O)Nc1ccc(-c2nn3c(C)nnc3s2)cc1C |  | inconclusive [inhibitor, partial curve]
63 | COc1cccc(/C=N/Nc2nc3ccccc3n3cnnc23)c1O |  | inconclusive [inhibitor, single point]
64 | Cc1ccc(Cn2ncc(C)c2N)o1 | inactive: 8.45% | 
65 | O=C(NC(CC(=O)N1CCN(c2ccc([N+](=O)[O-])cc2)CC1)c1ccccc1)c1ccccc1Cl (stereo not given) |  | inconclusive [inhibitor, partial curve]
66 | O=C(NCC1(c2ccccc2)CCCC1)c1ccc(Br)o1 |  | inconclusive [inhibitor, single point]
67 | CN(C)S(=O)(=O)c1cccc(NC(=O)c2ccncc2)c1 | inactive: 1.59% | 
68 | O=C(c1ccc(COc2ccccc2Br)cc1)N1CCCCC1 |  | inconclusive [inhibitor, single point]
69 | CCC(C)(C)n1nnnc1C(c1cccs1)N1CCN(Cc2ccccc2)CC1 (stereo not given) | inactive: -3.94% | 
70 | O=[N+]([O-])c1cccc(-c2ccc(C(=S)N3CCN(c4ccc(F)cc4)CC3)o2)c1 |  | inconclusive [inhibitor, partial curve]
71 | Cc1ccc(S(=O)(=O)Nc2nc3ccccc3nc2N2CCc3ccccc3C2)cc1 |  | inconclusive [inhibitor, single point]
72 | Cc1cc(C)c(NC2=CC(=O)CC(C)(C)C2)c(C#N)c1 |  | inconclusive [inhibitor, single point]
73 | COc1ccc(CCNC(=O)Cn2cnc3c2c(=O)n(C)c(=O)n3C)cc1OC | inactive: 6.66% | 
74 | CC1CCN(C(=O)/C(=C/c2ccccc2Cl)c2ccccc2)CC1 |  | inconclusive [inhibitor, single point]
75 | CCOC(=O)c1c(C)oc2c1c(C(c1cccnc1)N1CCN(C)CC1)c(O)c1ccccc12 (stereo not given) |  | active: 12.6 µM
